# According to PubChem BioAssay AID1159614 (National Center for Advancing Translational Sciences (NCATS), 2016):
# In all, about 45,000 compounds went through this assay and about 65 (0.1%) were called active. The call rests on the fitted dose curve; in most records, active means well fitted activation curve with a large enough effect; inconclusive means small, poorly fitted or top-dose-only effect; inactive means no such curve, though single readings can be large or run the other way. The list shows a part of the results.
# Target: Galactocerebrosidase (Homo sapiens) (UniProt P54803)
# Test: A Novel Cell-Based Assay to Identify Small Molecules for B -Galactocerebrosidase; further: nearly all actives have a fitted effect of over 65% in size; on activation: 0% is about no effect
# Conditions: 145M-Twi-hGALC-G270D cells (Twitcher mouse brain line with human GALC G270D), HMU-beta-Gal fluorescence, 48 h; series mostly up to 57.5 µM; activation: at the top concentration
# Method in brief: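 Fluorescence readout: HMU-β-gal cleavage by mutant GALC (0.1 mM final, citrate/phosphate pH 5.2 with 1 mg/mL taurocholate), stopped with carbonate/bicarbonate plus Triton X-100. Cells: murine Twitcher 145M-Twi expressing human G270D GALC; qHTS for activators.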
# Potency means the concentration at half of the fitted maximal effect.
# Sequence of UniProt P54803 (P54803 whole entry, looked up): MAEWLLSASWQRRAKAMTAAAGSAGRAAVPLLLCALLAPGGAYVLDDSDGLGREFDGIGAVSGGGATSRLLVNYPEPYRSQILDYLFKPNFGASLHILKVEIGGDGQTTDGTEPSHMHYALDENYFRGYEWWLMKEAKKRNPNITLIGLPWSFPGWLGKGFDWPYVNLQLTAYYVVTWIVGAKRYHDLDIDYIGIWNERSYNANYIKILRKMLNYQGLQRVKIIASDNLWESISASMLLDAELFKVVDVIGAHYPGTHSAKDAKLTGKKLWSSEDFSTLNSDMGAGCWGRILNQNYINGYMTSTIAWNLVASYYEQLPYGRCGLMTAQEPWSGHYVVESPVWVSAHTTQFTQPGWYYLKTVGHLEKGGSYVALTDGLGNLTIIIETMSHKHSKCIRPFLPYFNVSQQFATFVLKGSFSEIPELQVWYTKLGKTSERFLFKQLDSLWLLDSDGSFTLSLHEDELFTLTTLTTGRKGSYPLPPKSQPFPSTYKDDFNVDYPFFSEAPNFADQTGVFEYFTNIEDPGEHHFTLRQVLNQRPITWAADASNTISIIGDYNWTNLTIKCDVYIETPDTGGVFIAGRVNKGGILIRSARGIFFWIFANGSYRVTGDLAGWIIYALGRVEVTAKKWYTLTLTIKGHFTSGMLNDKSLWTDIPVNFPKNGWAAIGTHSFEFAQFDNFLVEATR
SMILES,activation,Potency
Cc1ccc(-n2c(-c3ccco3)nc3c(cnn3-c3ccccc3Cl)c2=O)cc1,inactive: 2.4%,–
COc1ccc(OC)c(NS(=O)(=O)c2ccc(-c3cc(C)no3)s2)c1,inactive: -3.22%,–
COc1ccc(CNC(=O)CCCn2nc(C)c3c(C)n(-c4ccccc4)nc3c2=O)cc1,inactive: -14.6%,–
CCCN(CCC)S(=O)(=O)c1ccc(C(=O)Nc2sc3c(c2C(=O)OC)CCN(CC)C3)cc1,inactive: -22.1%,–
CSc1ccc(C2c3c(oc4cc(C)cc(C)c4c3=O)C(=O)N2Cc2ccco2)cc1 (stereo unspecified),inactive: -10.9%,–
Cc1ccc(CCNC(=O)c2ccc3c(c2)N(Cc2cccc(Cl)c2)C(=O)c2ccccc2S3(=O)=O)cc1,inactive: -17.8%,–
O=C(Nc1cccc(C(F)(F)F)c1)C1CCCN1S(=O)(=O)c1cccc2nsnc12 (stereo unspecified),inactive: -6.91%,–
c1ccc(CSc2nc3ncccc3[nH]2)cc1,inactive: -1.39%,–
Cc1cc(C)cc(OC(C)C(=O)Nc2c(C(=O)c3ccccc3)oc3ccccc23)c1 (stereo unspecified),inactive: -0.815%,–
CCN(CC)C(=O)Cn1c(=O)n(-c2ccc(Cl)cc2)c(=O)c2c3c(sc21)CCC3,inactive: -0.495%,–
CCOC(=O)c1c(C)[nH]c(C)c1S(=O)(=O)N1CCN(c2cccc(C(F)(F)F)c2)CC1,–,active: 1.12 µM
O=C1c2[nH]nc(-c3ccccc3O)c2C(c2cccc(OCc3ccccc3)c2)N1CCO (stereo unspecified),inactive: -13.3%,–
COc1ccc(CCNC(=O)C(=O)NCC(c2cccs2)S(=O)(=O)c2ccc(C)cc2)cc1 (stereo unspecified),inactive: -9.83%,–
COc1ccc(C(=O)COC(=O)C(Cc2c[nH]c3ccccc23)NC(=O)c2ccc(C(C)(C)C)cc2)cc1 (stereo unspecified),inactive: -17.5%,–
COc1ccc(-n2nc(C)c3c(C(F)(F)F)cc(-c4cccnc4)nc32)cc1,inactive: -11.8%,–
Cc1cn2c(=O)cc(COC(=O)c3cccc(NC(=O)c4ccccc4C)c3)nc2s1,inactive: 3.37%,–
Cc1ccc(S(=O)(=O)N2CCC(C(=O)Nc3ccc(C)c(Cl)c3)CC2)cc1,inactive: -25.6%,–
CC1(C)NC(=O)N(c2ccc([N+](=O)[O-])c(C(F)(F)F)c2)C1=O,inactive: -13.9%,–
COc1cccc(N2CCN(C(=O)CCS(=O)(=O)c3ccc4c(c3)oc(=O)n4C)CC2)c1,inactive: -19.2%,–
COCCCNC(=O)C1CCN(c2nc3ccc(C)cc3[nH]2)CC1,inactive: -6.12%,–
CCOC(=O)c1cc(OC(=O)c2ccccc2C)n(-c2ccccc2)n1,inactive: -8.86%,–
CC(=O)c1ccc(NC(=O)Cn2nc(N3CCN(c4ccccc4)CC3)ccc2=O)cc1,inactive: -12%,–
COc1ccccc1OC(C)C(=O)Nc1cccc(-c2nc3ccccc3o2)c1 (stereo unspecified),inactive: -17%,–
CC(=O)c1sc(N2C(=O)c3oc4ccccc4c(=O)c3C2c2ccc(C)cc2)nc1C (stereo unspecified),inactive: -18.8%,–

SMILES,activation,Potency
CCC(Sc1nnc(C)n2c1cc1occc12)C(=O)Nc1ccccc1OC (stereo unspecified),inactive: -16.8%,–
CCN(Cc1ccccc1)C(=O)c1cnn(-c2ccc(F)cc2)c1-n1cccc1,inactive: -12.3%,–
CCCn1c2ccccc2c2nnc(SCC(=O)Nc3cccc(C(C)=O)c3)nc21,inactive: -18.4%,–
Cc1ccc(NC(=O)c2cnn3c2NC(c2ccccc2)=CC3c2ccccc2)cc1 (stereo unspecified),inactive: 3.42%,–
CC(C)c1nc2ccc(C(=O)Nc3ccccc3F)cc2o1,inactive: -11.4%,–
O=C(NCc1cccnc1)c1nn(-c2ccc(F)cc2)nc1CO,inactive: 8.57%,–
CCCSc1nc2c([nH]c3ccccc32)c(=O)n1C,inactive: -8.33%,–
Cc1ccc(Cl)cc1N1CCN(S(=O)(=O)c2ccc3c(c2)CCN3C(=O)C2CCC2)CC1,inactive: -18.3%,–
COc1ccccc1CNC(=O)CSC1=Nc2ccccc2N=C(c2ccc(F)cc2)C1,inactive: -2.93%,–
CCc1ccc(NS(=O)(=O)c2ccc3[nH]cc(C(=O)NCCCOC(C)C)c(=O)c3c2)cc1,inactive: -7.02%,–
CCOc1cc(CNC(=O)CN2CCSc3ccccc32)cc(OCC)c1OCC,inactive: -4.93%,–
COc1cccc(NC(=O)Cn2c(=O)n(Cc3ccccc3)c(=O)c3ccccc32)c1,inactive: -13.1%,–
Cc1ccc(N(CC(=O)Nc2ccc(Cl)cc2)S(=O)(=O)c2cccc3nonc23)cc1,inactive: -8.33%,–
CCSc1nc2n(n1)C(c1ccc(C(=O)O)cc1)C(C(=O)Nc1ccccc1C)=C(C)N2 (stereo unspecified),inactive: -14.8%,–
CN1C(C(=O)Nc2ccc(OC(F)(F)F)cc2)=CC(c2cccs2)=NS1(=O)=O,inactive: -8.08%,–
COc1ccc(NC(=O)c2oc3ccccc3c2NC(=O)COc2ccc(C(C)C)cc2)c(OC)c1,inactive: -3.91%,–
O=C(Nc1ccccc1Cl)c1sc2cccc(Cl)c2c1Cl,inactive: -8.95%,–
Cc1ccc(-n2ncc(C(=O)N3CCCCC3)c2C2CCN(C(=O)OC(C)(C)C)CC2)c(C)c1,inactive: -4.71%,–
COc1ccc(-n2c(=O)[nH]c3cc(C(=O)NCCc4ccccc4)ccc3c2=O)cc1OC,inactive: -13.6%,–
CCCS(=O)(=O)c1nc(S(=O)(=O)c2ccc(C)cc2)c(NC)s1,inactive: -11.4%,–
O=C(COc1ccccc1)Nc1ccc2nc(SCC(=O)N3CCOCC3)sc2c1,inactive: -2.1%,–
CCOC(=O)c1c(NC(=O)c2ccc(OC)cc2)sc2c1CCCCC2,inactive: -23.3%,–
Cc1ccc(NC(=O)Cc2coc3ccc(C(C)C)cc23)cc1Cl,inactive: -53.3%,–
CN(C)c1ccc(CNC(=O)Cn2c(=O)oc3cc(S(=O)(=O)N4CCCCCC4)ccc32)cc1,inactive: -7.29%,–

SMILES,activation,Potency
COc1ccc(N2CCN(CCCNC(=O)Nc3ccccc3)CC2)cc1,inactive: -15.8%,–
O=C(CCC1N=C2c3ccccc3N=C(SCc3ccc(Cl)cc3)N2C1=O)N1CCN(c2ccccc2)CC1 (stereo unspecified),inactive: -11.4%,–
Fc1ccc(-c2nc(Nc3cccc(C(F)(F)F)c3)nc3c2COc2ccccc2-3)cc1,inactive: -9.75%,–
COc1ccc(-n2c(SCC(=O)NCc3ccc(C)cc3)nc3n[nH]c(C)c3c2=N)cc1,inactive: -3.74%,–
COC(=O)c1sccc1S(=O)(=O)N(CC(=O)NCc1ccc(C)cc1)c1ccc(C)cc1,inactive: -14.8%,–
Cc1ccc(CSc2nnc3[nH]c(=O)cc(-c4ccccc4)n23)cc1,inactive: -5.51%,–
O=C(CSc1nnc(-c2ccc(F)cc2)o1)N1CCCc2ccccc21,inactive: -9.28%,–
O=C(O)c1ccccc1-c1ccc(C(F)(F)F)cc1,inactive: -15%,–
CCn1cc(C(=O)NCc2ccc(Cl)cc2)c(=O)c2cc(S(=O)(=O)N(C)C3CCCCC3)ccc21,inactive: -0.448%,–
CCOC(=O)C1=C(CN2CCN(c3cccc(Cl)c3)CC2)NC(=O)NC1c1ccc(Cl)cc1 (stereo unspecified),inactive: -4.2%,–
CCN(Cc1ccccc1)S(=O)(=O)c1ccc(-c2coc(C)n2)cc1,inactive: -36.4%,–
CC(CNC(=O)c1ccc2nc(Cc3ccccc3)oc2c1)c1ccccc1 (stereo unspecified),inactive: -12.2%,–
O=C(Cn1ncc2c3ccccc3n(Cc3ccc(F)cc3)c2c1=O)NCc1cccs1,inactive: -14.2%,–
Fc1ccc(C2=CC(c3ccc(F)cc3)n3c(nc4ccccc43)N2)cc1 (stereo unspecified),inactive: -9.16%,–
Cc1cc(-n2c(C)nc3ccccc3c2=O)ccc1NC(=O)C(F)(F)F,inactive: -27.3%,–
COc1ccc(NC(=O)CCCn2nc(C)c3sc4ccccc4c3c2=O)cc1,inactive: -1.48%,–
COc1ccc(S(=O)(=O)NCCSc2nnnn2-c2ccccc2)cc1,inactive: -8.45%,–
Cc1cc(C(=O)Nc2ccc(-n3c(C)nc4ccccc4c3=O)cc2)ccc1[N+](=O)[O-],inactive: -12.5%,–
COc1ccc(NS(=O)(=O)c2ccc3nc(-c4ccccc4)[nH]c3c2)cc1,inactive: -27.8%,–
CCC(C)Nc1ncnc2c1cnn2-c1ccc(F)cc1 (stereo unspecified),inactive: -8.31%,–
CC1CCCN(S(=O)(=O)c2ccc3c(c2)CCN3C(=O)CCC(=O)O)C1 (stereo unspecified),inactive: -10.6%,–
CCS(=O)(=O)CCn1c([N+](=O)[O-])cnc1C,inactive: -19.1%,–
O=C(NCC(c1ccc(Cl)cc1)N1CCOCC1)c1ccccc1F (stereo unspecified),inactive: -27.5%,–
CCOc1ccc(-c2nnc(SCC(=O)Nc3cccc(OC)c3)nc2-c2ccc(OCC)cc2)cc1,inactive: 7.12%,–

SMILES,activation,Potency
O=C1CCc2cc(OCCCCc3nnnn3C3CCCCC3)ccc2N1,inactive: -17.3%,–
COc1ccc(C(=O)NCC(c2ccc3c(c2)OCO3)N2CCN(c3ccccc3F)CC2)cc1 (stereo unspecified),inactive: -10.9%,–
O=C(COc1ccc([N+](=O)[O-])cc1)Nc1nc2c(s1)CCCC2,inactive: -7.23%,–
COc1cccc(C2CC(=O)Nc3c2c(=O)[nH]c2nc4ccccc4n32)c1 (stereo unspecified),inactive: 0.803%,–
Cc1ccccc1-c1nnn(CC(=O)Nc2sc3c(c2C#N)CCC(C(C)(C)C)C3)n1 (stereo unspecified),inactive: -7.13%,–
CCOC(=O)c1c(NC(=O)c2nc(S(C)(=O)=O)ncc2Cl)sc(C(C)=O)c1C,inactive: -20.7%,–
O=c1[nH]c2ccc(NCc3ccc(-c4ccc(Br)cc4)o3)cc2[nH]1,inactive: -7.21%,–
Cc1ccc2ncc(C(=O)Nc3ccc(OC(F)(F)F)cc3)c(=O)n2c1,inactive: -7.05%,–
COc1cc(OC)cc(-c2nc(-c3ccc4c(c3)[nH]c(=O)n4C)no2)c1,inactive: -21.9%,–
O=C1CCCc2cc(S(=O)(=O)N3CCCC(C(=O)NCc4ccc(Cl)cc4)C3)ccc2N1 (stereo unspecified),inactive: -26.5%,–
CCc1ccc(NC(=O)Cn2c(=O)n(CCCCC(=O)NCCc3ccc(Cl)cc3)c(=O)c3ccccc32)cc1,inactive: -11.1%,–
CCOC(=O)c1[nH]c2ccccc2c1NC(=O)c1ccc(Br)cc1,inactive: -14.9%,–
Cc1ccc2c(c1)N(CCCC(=O)Nc1cccc(C(F)(F)F)c1)C(=O)CO2,inactive: -29.8%,–
COc1cccc(CNC(=O)C2CCN(S(=O)(=O)c3ccc4c(c3)CCCN4C(C)=O)CC2)c1,inactive: -17.4%,–
COc1ccc2cc3c(N)nn(C(=O)c4ccc(OC)c(OC)c4)c3nc2c1,inactive: -22.2%,–
O=C(Nc1ccccc1C(F)(F)F)n1ncc2cc(Cl)ccc21,inactive: -10.3%,–
Cc1ccc(-c2cc(C(=O)NCc3ccccc3Cl)c3ccccc3n2)cc1C,inactive: -11.8%,–
CCCCN1C(=O)C(O)(CC(=O)c2ccc(C(C)(C)C)cc2)c2ccccc21 (stereo unspecified),inactive: -18.3%,–
CCCCOc1cc(C(=O)NCCN(CC)CC)c2ccccc2n1,inactive: -3.93%,–
CCOc1ccc(-c2nc3c(c(SCC(=O)N4CCCCC4)n2)Cc2cccc(OC)c2O3)cc1,inactive: -9.81%,–
Cc1cccc(CSc2ncc(Cl)c(C(=O)Nc3nc4ccc(F)cc4s3)n2)c1,inactive: -8.8%,–
CCOc1ccc(NC(=O)c2ncoc2-c2ccco2)cc1,inactive: 10.7%,–
COc1cc(NC(=O)Cn2cc(C(=O)c3ccc(F)cc3)c(=O)c3ccc(C)nc32)cc(OC)c1,inactive: -16.2%,–
Cc1ccc2nc3c(cc(C#N)c(=O)n3-c3nnc(SCc4ccccc4)s3)c(=O)n2c1,inactive: -9.96%,–
